These are yes or no findings as the source states them, for the method shown. Binding seen in cells or lysates may run through a third protein. Some entries that bind do so weakly or less than the wild type. Sequences can lack the tags named with a protein.
Tests used:
FLAG-tagged Rnd3 [1] = target: T1, FLAG-tagged Rnd3 (UniProt P61587); assay: co-IP; P19 cells co-transfected with FLAG-Rnd and VSV-Plexin plasmids, lysed 24 h later in RIPA-like buffer (50 mM Tris-HCl pH 8, 150 mM NaCl, 0.5% NP40 Igepal, 10% glycerol); lysate incubated overnight at 4 °C with anti-FLAG M2 agarose beads; immunoblot with anti-VSV and anti-FLAG
T1 sequence: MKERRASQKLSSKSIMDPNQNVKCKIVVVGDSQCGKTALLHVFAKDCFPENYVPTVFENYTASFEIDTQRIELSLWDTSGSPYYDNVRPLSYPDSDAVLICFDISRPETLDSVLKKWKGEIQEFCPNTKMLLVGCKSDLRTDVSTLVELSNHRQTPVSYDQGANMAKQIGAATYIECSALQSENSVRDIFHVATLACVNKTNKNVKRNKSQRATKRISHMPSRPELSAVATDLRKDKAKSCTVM

Sequences of proteins named here, by UniProt entry; tags and fusion partners are left off. Residues count along the entry.
UniProt O43157, residues 20-2135: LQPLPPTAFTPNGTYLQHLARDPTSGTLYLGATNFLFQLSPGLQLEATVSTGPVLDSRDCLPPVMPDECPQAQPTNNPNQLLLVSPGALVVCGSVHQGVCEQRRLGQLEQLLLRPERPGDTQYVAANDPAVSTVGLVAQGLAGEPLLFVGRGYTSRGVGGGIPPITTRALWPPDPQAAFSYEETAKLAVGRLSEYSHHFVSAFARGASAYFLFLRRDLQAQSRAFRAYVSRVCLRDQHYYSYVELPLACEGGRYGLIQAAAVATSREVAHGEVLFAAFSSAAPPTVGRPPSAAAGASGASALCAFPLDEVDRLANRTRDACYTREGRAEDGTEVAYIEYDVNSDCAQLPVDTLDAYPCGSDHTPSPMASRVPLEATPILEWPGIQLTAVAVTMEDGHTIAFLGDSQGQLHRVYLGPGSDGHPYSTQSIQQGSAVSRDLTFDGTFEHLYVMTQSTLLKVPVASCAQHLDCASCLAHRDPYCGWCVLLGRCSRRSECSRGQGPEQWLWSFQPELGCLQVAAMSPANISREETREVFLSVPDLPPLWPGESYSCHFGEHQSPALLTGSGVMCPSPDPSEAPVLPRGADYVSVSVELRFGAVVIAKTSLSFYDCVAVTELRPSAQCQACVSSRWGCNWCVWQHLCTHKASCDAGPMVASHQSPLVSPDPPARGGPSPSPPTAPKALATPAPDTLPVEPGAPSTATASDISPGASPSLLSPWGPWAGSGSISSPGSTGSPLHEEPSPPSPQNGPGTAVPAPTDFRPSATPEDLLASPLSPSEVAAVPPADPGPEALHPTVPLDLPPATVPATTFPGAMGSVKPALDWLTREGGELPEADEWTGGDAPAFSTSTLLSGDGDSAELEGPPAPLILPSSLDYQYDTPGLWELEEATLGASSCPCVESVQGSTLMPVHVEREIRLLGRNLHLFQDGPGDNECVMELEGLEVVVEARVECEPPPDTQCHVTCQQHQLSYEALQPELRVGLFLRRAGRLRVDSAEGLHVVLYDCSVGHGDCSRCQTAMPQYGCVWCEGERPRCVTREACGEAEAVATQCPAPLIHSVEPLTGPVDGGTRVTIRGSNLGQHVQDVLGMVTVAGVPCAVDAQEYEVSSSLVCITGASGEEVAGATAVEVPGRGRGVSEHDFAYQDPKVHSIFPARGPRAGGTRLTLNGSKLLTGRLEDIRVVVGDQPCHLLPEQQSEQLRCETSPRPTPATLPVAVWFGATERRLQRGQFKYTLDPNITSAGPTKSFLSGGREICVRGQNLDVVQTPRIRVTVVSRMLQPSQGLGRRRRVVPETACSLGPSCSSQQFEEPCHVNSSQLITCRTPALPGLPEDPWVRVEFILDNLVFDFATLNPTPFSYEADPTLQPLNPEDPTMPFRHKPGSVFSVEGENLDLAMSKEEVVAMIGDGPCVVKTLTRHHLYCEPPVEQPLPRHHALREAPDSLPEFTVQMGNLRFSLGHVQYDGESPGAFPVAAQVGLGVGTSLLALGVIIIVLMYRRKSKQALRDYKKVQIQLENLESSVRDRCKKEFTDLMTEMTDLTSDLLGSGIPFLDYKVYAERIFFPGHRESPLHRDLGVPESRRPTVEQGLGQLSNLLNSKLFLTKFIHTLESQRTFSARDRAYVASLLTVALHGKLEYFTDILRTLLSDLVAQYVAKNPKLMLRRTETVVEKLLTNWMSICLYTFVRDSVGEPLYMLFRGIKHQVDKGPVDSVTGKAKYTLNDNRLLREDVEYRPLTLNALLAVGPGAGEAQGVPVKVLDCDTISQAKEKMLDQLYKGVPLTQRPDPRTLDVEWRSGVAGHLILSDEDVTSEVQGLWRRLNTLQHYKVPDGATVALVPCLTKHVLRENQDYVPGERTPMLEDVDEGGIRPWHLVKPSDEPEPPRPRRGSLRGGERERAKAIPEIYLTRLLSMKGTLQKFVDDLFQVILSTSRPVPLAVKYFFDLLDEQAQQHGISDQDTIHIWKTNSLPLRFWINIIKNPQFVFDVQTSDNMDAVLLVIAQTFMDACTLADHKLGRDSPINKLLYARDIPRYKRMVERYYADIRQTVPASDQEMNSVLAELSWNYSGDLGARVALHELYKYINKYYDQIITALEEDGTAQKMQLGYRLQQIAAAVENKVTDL
UniProt Q13017, residues 382-1007: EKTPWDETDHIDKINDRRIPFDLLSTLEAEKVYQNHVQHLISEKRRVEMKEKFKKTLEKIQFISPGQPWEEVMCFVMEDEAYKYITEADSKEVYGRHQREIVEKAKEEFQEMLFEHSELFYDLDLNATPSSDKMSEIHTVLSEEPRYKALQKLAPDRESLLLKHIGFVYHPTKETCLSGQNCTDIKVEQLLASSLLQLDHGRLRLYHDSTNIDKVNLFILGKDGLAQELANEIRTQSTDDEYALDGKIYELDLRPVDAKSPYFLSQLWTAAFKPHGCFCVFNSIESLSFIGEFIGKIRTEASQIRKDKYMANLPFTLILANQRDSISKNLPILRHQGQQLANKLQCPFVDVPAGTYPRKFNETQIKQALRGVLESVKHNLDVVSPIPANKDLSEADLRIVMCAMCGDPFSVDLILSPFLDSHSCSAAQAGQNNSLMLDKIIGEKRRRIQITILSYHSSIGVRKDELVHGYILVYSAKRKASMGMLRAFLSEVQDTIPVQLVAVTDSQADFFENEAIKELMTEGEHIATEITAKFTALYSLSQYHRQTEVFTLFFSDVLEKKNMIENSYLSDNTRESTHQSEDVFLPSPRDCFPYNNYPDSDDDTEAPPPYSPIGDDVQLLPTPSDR

FLAG-tagged Rnd3 [2] = target: T1, FLAG-tagged Rnd3; assay: co-IP; competition: COS7 cells co-transfected with 5 μg pCMV5-FLAG-Rnd3, pCMV-Myc-Δp190B and increasing pcDNA-VSV-PlexinB2 (0.5, 1, 2 and 5 μg); lysates immunoprecipitated with anti-FLAG M2 antibody, immunoblotted with the indicated antibodies
FLAG-tagged Rnd3 [3] = target: T1, FLAG-tagged Rnd3; assay: co-IP; COS7 cells co-transfected with FLAG-Rnd3 or FLAG-Rnd3 T55V and HA-PlexinB2 (cytoplasmic domain); lysates 24 h after transfection immunoprecipitated with mouse anti-FLAG M2 antibody; immunoblot with anti-HA and anti-FLAG
FLAG-Rnd3 T55V = target: T2, FLAG-Rnd3 T55V (UniProt P61587); assay: as above
T2 sequence: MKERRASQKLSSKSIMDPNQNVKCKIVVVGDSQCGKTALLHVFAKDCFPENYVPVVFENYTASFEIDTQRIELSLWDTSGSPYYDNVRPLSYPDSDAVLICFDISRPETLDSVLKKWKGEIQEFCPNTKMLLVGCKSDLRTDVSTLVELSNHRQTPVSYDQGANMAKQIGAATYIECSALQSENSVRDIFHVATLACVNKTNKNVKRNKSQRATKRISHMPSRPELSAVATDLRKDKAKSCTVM

Molecule: human VSV-tagged PlexinB1 (from UniProt O43157 20-2135) (receptor)
- binding (FLAG-tagged Rnd3 [1]): no binding

Molecule: Myc-p190RhoGAP-B (middle domain) (from UniProt Q13017 382-1007) (domain or fragment)
- binding (FLAG-tagged Rnd3 [2]): binds

B1: HA-PlexinB2 (cytoplasmic domain) (domain or fragment, UniProt B2RXS4 1223-1842)
chain: CYWRKSQQAEREYEKIKSQLEGLEESVRDRCKKEFTDLMIEMEDQTNDVHEAGIPTLDYKTYTDRVFFLPSKDGDKDVMITGKLDIPESRRPIVEQALYQFSNLLNSKSFLINFIHTLENQREFSARAKVYFASLLTVALHGKLEYYTDIMRTLFLELMEQYVVAKNPKLMLRRSETVVERMLSNWMSICLYQYLKDSAGEPLYKLFKAIKHQVEKGPVDAVQKKAKYTLNDTGLLGDDVEYAPLTVSVIVQDEGIDAIPVKVLNCDTISQVKEKIIDQVYRTQPCSCWPKPDSVVLEWRPGSTAQILSDLDLTSQREGRWKRINTLMHYNVRDGATLILSKVGVSQQPEDSQQDLPGERHALLEEENRVWHLVRPTDEVDEGKSKRGSMKEKERTKAITEIYLTRLLSVKGTLQQFVDNFFQSVLAPGHAVPPAVKYFFDFLDEQAEKHDIRDEDTIHIWKTNSLPLRFWVNILKNPHFIFDVHVHEVVDASLSVIAQTFMDACTRTEHKLSRDSPSNKLLYAKEISTYKKMVEDYYKGIRQMVQVSDQDMNTHLAEISRAHTDSLNTLVALHQLYQYTQKYYDEIINALEEDPAAQKMQLAFRLQQIAAALENKVTDL
- binding (FLAG-tagged Rnd3 [3]): binds
- binding (FLAG-Rnd3 T55V): no binding

From article PMC3939360
